Measured values reported in the BET-seq Pho4 binding data (Le et al. 2018).
This is one part of the list. The energies were worked out here from pooled read counts, against the library average; single values are noisy.

The sequences below were run against T1, Pho4 (S. cerevisiae) (UniProt P07270) (assay: relative binding free energy (BET-seq); higher = weaker binding). Conditions: reference: library average.
T1 sequence: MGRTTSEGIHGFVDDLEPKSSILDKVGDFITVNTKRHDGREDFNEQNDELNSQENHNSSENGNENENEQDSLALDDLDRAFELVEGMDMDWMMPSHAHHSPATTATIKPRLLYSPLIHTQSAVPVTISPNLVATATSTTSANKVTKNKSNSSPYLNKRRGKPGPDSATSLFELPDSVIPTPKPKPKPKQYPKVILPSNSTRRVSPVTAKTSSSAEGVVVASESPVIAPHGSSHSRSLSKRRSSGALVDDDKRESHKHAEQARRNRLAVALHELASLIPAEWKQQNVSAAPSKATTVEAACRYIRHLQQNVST

Sequence	relative binding free energy
TGCGACACGTGGGTGG	-0.19 kcal/mol
TTTGACACGTGGTTCA	-0.13 kcal/mol
GAGGTCACGTGCTGGG	0.04 kcal/mol
TGCTTCACGTGTGATT	0.28 kcal/mol
GGTTTCACGTGTTTTT	0.42 kcal/mol
AGTTTCACGTGGGGGT	0.19 kcal/mol
TTGAACACGTGCGGGG	0.06 kcal/mol
AGTAGCACGTGGGAGA	-0.07 kcal/mol
TTATGCACGTGGCATT	-0.21 kcal/mol
AGGAACACGTGGCGTG	-0.09 kcal/mol
GGTGTCACGTGGTCAC	0.08 kcal/mol
TTAGGCACGTGGCTCT	0 kcal/mol
TAAAGCACGTGGTTTT	-0.12 kcal/mol
GTGATCACGTGCTTTG	0.08 kcal/mol
TGCCGCACGTGGGGGC	-0.3 kcal/mol
GGGGGCACGTGAAGAT	0.18 kcal/mol
TGGTGCACGTGGATTC	0.14 kcal/mol
ACGGTCACGTGTATGT	0.09 kcal/mol
TTTAGCACGTGATTGG	0.03 kcal/mol
GGGATCACGTGGGAGA	0.09 kcal/mol
ACGATCACGTGTGTTA	0.26 kcal/mol
AATGGCACGTGTGGGT	0 kcal/mol
CATTGCACGTGGGCTG	-0.08 kcal/mol
TTCGTCACGTGAGAAT	0.51 kcal/mol
GGATGCACGTGGTCGA	-0.15 kcal/mol
AAGGACACGTGCGGTG	-0.07 kcal/mol

Sequence	relative binding free energy
AGCAGCACGTGAAGGG	0.18 kcal/mol
TGGAACACGTGTTTGT	-0.01 kcal/mol
TTACTCACGTGGGGCG	-0.07 kcal/mol
GGACGCACGTGGGTGC	-0.19 kcal/mol
GAGTGCACGTGGCATT	0.04 kcal/mol
GTATGCACGTGGGAAT	-0.03 kcal/mol
GTAAACACGTGATAGG	0.13 kcal/mol
GATAACACGTGTAGTT	0.1 kcal/mol
GGCGTCACGTGTGGTC	0.19 kcal/mol
TCCGTCACGTGGAGTT	0.23 kcal/mol
CTCTTCACGTGTGAGG	0.34 kcal/mol
AATTACACGTGTGCAT	0.16 kcal/mol
ATGGACACGTGTCTGG	-0.03 kcal/mol
GTTATCACGTGTTTCT	0.28 kcal/mol
GTCCTCACGTGGTTTT	0.43 kcal/mol
CGGTGCACGTGTAATT	0.09 kcal/mol
TGGGGCACGTGCGATA	-0.24 kcal/mol
TATAGCACGTGGTACT	-0.1 kcal/mol
AATTGCACGTGTCGGG	0.03 kcal/mol
TAAATCACGTGTGGAT	0.24 kcal/mol
AGATGCACGTGCGTTT	-0.04 kcal/mol
TGGAGCACGTGCATGT	-0.27 kcal/mol
TGTAGCACGTGCATTT	-0.1 kcal/mol
AGTGACACGTGGGGAT	-0.15 kcal/mol
GCGGGCACGTGAGGGG	0.12 kcal/mol
AGCTGCACGTGTAGGT	-0.01 kcal/mol

Sequence	relative binding free energy
TAATACACGTGTGAGG	0.05 kcal/mol
TTATTCACGTGTACGT	0.19 kcal/mol
TTGAGCACGTGGTAAT	0.03 kcal/mol
GAGGCCACGTGGGTCT	-0.08 kcal/mol
GTTTTCACGTGTCGGA	0.46 kcal/mol
CAGGTCACGTGTTTGA	0.04 kcal/mol
GGGTACACGTGACTTT	0.3 kcal/mol
TGCGTCACGTGCAGTG	0.1 kcal/mol
AGTATCACGTGGCTGG	0.03 kcal/mol
GGTAACACGTGAGGTA	0.17 kcal/mol
CGGGTCACGTGCCGGG	-0.01 kcal/mol
TCTGACACGTGATGTG	0.11 kcal/mol
GTTGTCACGTGGTTAG	0.13 kcal/mol
AAGTTCACGTGCGTAT	0.18 kcal/mol
TCTGTCACGTGTTAAT	0.14 kcal/mol
TGGCCCACGTGTGTGT	-0.06 kcal/mol
TAATTCACGTGAGTCG	0.46 kcal/mol
TTTGTCACGTGATTAG	0.19 kcal/mol
AGACGCACGTGGGTAT	-0.26 kcal/mol
GAAGTCACGTGAAGAT	0.42 kcal/mol
TTTTGCACGTGTCCGT	0.03 kcal/mol
GGTTTCACGTGTTCTA	0.41 kcal/mol
CGGGACACGTGGTGAA	-0.05 kcal/mol
TGTGCCACGTGGTAAT	-0.11 kcal/mol
GATAGCACGTGGGACG	-0.07 kcal/mol
TTAGTCACGTGTCATT	0.08 kcal/mol

Sequence	relative binding free energy
GTTTGCACGTGGATAG	0.06 kcal/mol
GGTCCCACGTGGTTGT	-0.1 kcal/mol
TGGGTCACGTGTTTGT	0.08 kcal/mol
GATGCCACGTGGGGTG	-0.24 kcal/mol
TTTATCACGTGTGTAA	0.17 kcal/mol
TAATACACGTGCGGGT	0.05 kcal/mol
TATGGCACGTGTTCGA	-0.15 kcal/mol
AAGTACACGTGTTATG	0.09 kcal/mol
TTATGCACGTGCTGGT	-0.03 kcal/mol
TCATTCACGTGTATGA	0.42 kcal/mol
TGTGCCACGTGTGAGT	-0.07 kcal/mol
TTGGGCACGTGTACTT	-0.06 kcal/mol
TTAGTCACGTGATTGT	0.28 kcal/mol
TTTCTCACGTGTTTGT	0.29 kcal/mol
GTGGGCACGTGTATGT	0 kcal/mol
TAAGCCACGTGGGATG	-0.06 kcal/mol
ATTACCACGTGTGAGT	0.03 kcal/mol
TCAGGCACGTGGATAG	-0.1 kcal/mol
GTTACCACGTGGAGTT	0.09 kcal/mol
GTTTTCACGTGATTAG	0.31 kcal/mol
TAATTCACGTGATTGA	0.38 kcal/mol
CAGTTCACGTGATGGT	0.26 kcal/mol
AGGATCACGTGGGGAC	0.01 kcal/mol
CATTGCACGTGATGTA	-0.01 kcal/mol
ACAATCACGTGTTGGG	0.16 kcal/mol
AGCGGCACGTGAGATT	0.24 kcal/mol

Sequence	relative binding free energy
CATTGCACGTGACGGG	0.16 kcal/mol
CGTGTCACGTGTGGTA	0.08 kcal/mol
AAATTCACGTGGTATG	0.24 kcal/mol
TGAGGCACGTGGGTTC	-0.09 kcal/mol
TGGCACACGTGTTGTA	0.27 kcal/mol
TGTATCACGTGTGTAC	0.13 kcal/mol
TTGTTCACGTGGGCAG	0.04 kcal/mol
GGTCTCACGTGTTTAT	0.22 kcal/mol
GAAAGCACGTGTCGGT	0.04 kcal/mol
GTTGACACGTGTATAG	0.12 kcal/mol
CGGGGCACGTGGCCGT	-0.2 kcal/mol
TTATGCACGTGAGATT	0.15 kcal/mol
TGCGTCACGTGTAGTG	0.13 kcal/mol
AAGGGCACGTGTTGCT	0.01 kcal/mol
GAGGCCACGTGTCGTG	0.14 kcal/mol
TTATTCACGTGTTGGC	0.3 kcal/mol
CTTAGCACGTGTTTTA	-0.11 kcal/mol
ATGTACACGTGGGTTT	-0.03 kcal/mol
TGAGTCACGTGACTAG	0.24 kcal/mol
GGGATCACGTGAGTTG	0.19 kcal/mol
TCATGCACGTGTTTGA	-0.06 kcal/mol
GGCTGCACGTGGATTT	0.07 kcal/mol
CTTGGCACGTGTTGTG	-0.07 kcal/mol
GGAGGCACGTGGAGGG	-0.02 kcal/mol
TTTGCCACGTGTTACT	-0.04 kcal/mol
TCTATCACGTGGGTGG	0 kcal/mol

Sequence	relative binding free energy
AGGAGCACGTGTATGT	-0.19 kcal/mol
ATATGCACGTGGAGGG	-0.06 kcal/mol
TGCCTCACGTGAGGTT	0.37 kcal/mol
GTAGGCACGTGGTTGT	-0.1 kcal/mol
GGGGACACGTGGTGAG	0.03 kcal/mol
TGTAGCACGTGGAAGA	-0.02 kcal/mol
CTGGCCACGTGAGTGG	0.23 kcal/mol
ATAGGCACGTGGGTAA	-0.22 kcal/mol
TTGGTCACGTGACATG	0.08 kcal/mol
TCAGGCACGTGGGTAC	-0.15 kcal/mol
AGTTTCACGTGGTGGG	0.32 kcal/mol
TGTCGCACGTGGCGGC	-0.11 kcal/mol
GGGGCCACGTGTCTGT	-0.05 kcal/mol
AGGCGCACGTGTCGGC	0.09 kcal/mol
TGGGTCACGTGTGTGG	0.14 kcal/mol
CATTTCACGTGGTATG	0.18 kcal/mol
TAGAACACGTGTGTGC	0.04 kcal/mol
TTAATCACGTGAGGTA	0.23 kcal/mol
GGTTGCACGTGAAGTA	0.34 kcal/mol
CTTTGCACGTGTGGTA	-0.03 kcal/mol
GTGATCACGTGCTGTG	0.13 kcal/mol
TACGACACGTGGAGGG	0 kcal/mol
TTGGACACGTGCTGAG	-0.02 kcal/mol
GTTCACACGTGGGTGG	-0.07 kcal/mol
TCGGTCACGTGTCGTC	0.39 kcal/mol
GGGAGCACGTGGCGCT	-0.16 kcal/mol

Sequence	relative binding free energy
TTGATCACGTGTATAT	0.13 kcal/mol
GGATGCACGTGCATAG	0.09 kcal/mol
GTGTACACGTGTGAGC	0.16 kcal/mol
AATGTCACGTGGATGC	0.13 kcal/mol
CTGGGCACGTGGGAGA	-0.19 kcal/mol
GTATCCACGTGTGTGT	0.06 kcal/mol
TGGTTCACGTGTACTA	0.18 kcal/mol
CCGGTCACGTGTAGGT	0.04 kcal/mol
ATAATCACGTGGAGAT	0.06 kcal/mol
TTCAGCACGTGGTCAT	-0.1 kcal/mol
TTTAACACGTGATTAG	0.17 kcal/mol
GCAGGCACGTGTTGGT	0.05 kcal/mol
GGTTTCACGTGTGAAC	0.29 kcal/mol
TTGGACACGTGTCTGA	0.04 kcal/mol
AGGGACACGTGATGCG	0.12 kcal/mol
GGGGGCACGTGGTTCC	-0.13 kcal/mol
TCGATCACGTGGGTAG	-0.03 kcal/mol
AAGTTCACGTGATGGT	0.35 kcal/mol
TGGTACACGTGCGAGT	-0.04 kcal/mol
AGTTGCACGTGTATCT	-0.02 kcal/mol
GTGGACACGTGTTAGG	0.09 kcal/mol
CTGTACACGTGTGTGC	0.13 kcal/mol
GGGAGCACGTGTAAGA	0 kcal/mol
CTCGGCACGTGGAGTT	0 kcal/mol
TGTGACACGTGTGACA	0.1 kcal/mol
ATTAACACGTGTATGA	-0.02 kcal/mol

Sequence	relative binding free energy
TGAGTCACGTGGCTTT	0.07 kcal/mol
ATGTACACGTGGTTAG	0.01 kcal/mol
GTGTGCACGTGTAGGT	-0.02 kcal/mol
GTGGCCACGTGTAGGT	0.05 kcal/mol
TTCTGCACGTGTGTTA	0.07 kcal/mol
GGAATCACGTGGCGGT	0.01 kcal/mol
CTCTTCACGTGTTGGT	0.1 kcal/mol
GCGTACACGTGTGGTT	0.16 kcal/mol
ACGTGCACGTGGGGGG	-0.11 kcal/mol
GTATTCACGTGGATTC	0.37 kcal/mol
GGAGGCACGTGTAACG	-0.03 kcal/mol
GTCGGCACGTGGGACG	-0.12 kcal/mol
TGGGGCACGTGATGTT	0.12 kcal/mol
GGTGGCACGTGCTAAT	-0.04 kcal/mol
TTGTGCACGTGTGCAT	-0.05 kcal/mol
GGCTACACGTGTTAGT	0.22 kcal/mol
AGTGCCACGTGAGTTT	0.16 kcal/mol
TCATGCACGTGGTTCG	-0.03 kcal/mol
GTAGGCACGTGTAGGG	-0.03 kcal/mol
TATTACACGTGGCGTG	-0.11 kcal/mol
ACGGGCACGTGGCGGG	-0.28 kcal/mol
GAGGGCACGTGGTTAA	-0.02 kcal/mol
GTGCACACGTGAGGGG	0.23 kcal/mol
TAAAGCACGTGGGGTG	-0.22 kcal/mol
TTGGTCACGTGGGGGC	0.05 kcal/mol
CTGGACACGTGTGAGT	0.15 kcal/mol

Sequence	relative binding free energy
TTGTGCACGTGGCGTT	-0.08 kcal/mol
AATGGCACGTGTTTGG	-0.06 kcal/mol
TGGGTCACGTGATTGC	0.23 kcal/mol
GATTGCACGTGGTTTA	-0.01 kcal/mol
CTGGTCACGTGAGAGA	0.34 kcal/mol
GTGGCCACGTGTTTTA	0.06 kcal/mol
TTATTCACGTGGTGAC	0.21 kcal/mol
ACCGTCACGTGTGGTG	0.09 kcal/mol
TGAGGCACGTGGATGA	-0.11 kcal/mol
GTGGCCACGTGGCGTG	-0.19 kcal/mol
ATTAGCACGTGGCAGG	-0.05 kcal/mol
GTAGACACGTGGGCGT	-0.14 kcal/mol
GAGGTCACGTGCCGGT	0.15 kcal/mol
TGATGCACGTGTCGTG	-0.02 kcal/mol
GGGCCCACGTGAGAGG	0.25 kcal/mol
CGTTGCACGTGATGCG	-0.01 kcal/mol
ATCTGCACGTGTTGGC	-0.01 kcal/mol
GATTACACGTGAGGTA	0.31 kcal/mol
ATTGCCACGTGCAGTG	-0.13 kcal/mol
AAGGCCACGTGGTCGT	-0.16 kcal/mol
AGCGGCACGTGGTGGT	-0.2 kcal/mol
GAATACACGTGTTGTT	-0.03 kcal/mol
